Measurements from PubChem BioAssay AID686978 (National Center for Advancing Translational Sciences (NCATS), 2013).
Among all 420,000 compounds or so, about 64,000 (15%) were called active. Inconclusive results, whose numbers are uncertain, are shown with a selection of clear calls. Calls follow the shape of the dose curve; as a rule, active = well fitted inhibition curve with a large enough effect; inconclusive = small, poorly fitted or top-dose-only effect; inactive = flat fitted curve, though single readings scatter. No potency is given beside an inconclusive call; the fits are too rough.

assay: qHTS for Inhibitors of human tyrosyl-DNA phosphodiesterase 1 (TDP1): qHTS in cells in absence of CPT; details: DT40 Tdp1-/- hTDP1 cells, no CPT, ATP luminescence, 48 h; series mostly up to 46.2 µM; also: nearly all actives have a fitted effect of over 55% in size
How it was run: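 Growth kinetics read by CellTiter-Glo luminescence after ≥48 hr at 37 °C. Cells: DT40 Tdp1-/- stably carrying human TDP1, 400 per well, compound exposure in the absence of CPT (DMSO vehicle).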
Potency is read from the fitted curve at half-maximal effect; tags tell the direction and shape of the fitted curve.

SMILES | Potency
Cc1cc2nc3n(c2cc1C)CC1CC(C(=O)NCCC(C)C)N(C)C31 (stereo not drawn) | inactive
COc1ccc(C2c3cc(OC)c(OC)cc3CCN2C(=O)c2ccccc2)cc1OC (stereo not drawn) | active: 9.2 µM
O=C(O)CCCCCCCCCCCNC(=O)NC12CC3CC(CC(C3)C1)C2 | inactive
C[C@]12c3[nH]c4ccc(Cl)cc4c3CCN1C(=O)[C@@H](CC(=O)NCCC1=CCCCC1)C[C@@H]2C(=O)N1CCCCC1 | inactive
CCOC(=O)c1ccc(CSC(=N)N)o1 | inconclusive [inhibitor, partial curve, poor fit]
CC(=O)c1ccc(NC(=O)COC(=O)c2c3c(nc4ccccc24)/C(=C\c2cccs2)CCC3)cc1 | active: 16.4 µM
CSc1ccc(CN2CCC2(C)C(=O)NCc2ccccc2Br)cc1 (stereo not drawn) | active: 23.1 µM
Cc1cccc(N2C(=O)c3cccc4c(N(C)CCO)ccc(c34)C2=O)c1 | active: 18.4 µM
CC(C)CNC(=O)C1(C)CCCN1Cc1ccc(OC(F)(F)F)cc1 (stereo not drawn) | inconclusive [inhibitor, single point]
COc1ccccc1CCNC(=O)Cn1c(=O)oc2ccccc21 | inconclusive [inhibitor, partial curve]
CCn1c(=O)c(C(=O)Nc2ccc(C)cc2C)c(O)c2ccccc21 | inconclusive [inhibitor, single point]
CC1CCCCC1NC(=O)Cc1ccc(S(=O)(=O)N2CCOCC2)s1 (stereo not drawn) | inconclusive [inhibitor, single point]
CCCCOc1ccc(CNC(=O)c2ccc(NC(=O)N3CCSc4ncccc43)cc2)cc1 | inconclusive [inhibitor, single point]
O=C(NN=Cc1ccc(N2CCOCC2)cc1)c1cc2ccccc2cc1O | inconclusive [inhibitor, single point]
O=C(Nc1ccc(N2CCOCC2)cc1N1CCOCC1)c1ccc(Cl)cc1 | inconclusive [inhibitor, single point]
Cc1ccc(-n2ncc(C(=O)N3CCC(c4ccccc4)C3)c2C2CCN(C(=O)OC(C)(C)C)CC2)cc1 (stereo not drawn) | active: 23.1 µM
CC(=O)c1nc(N2C(=O)CC(Cc3ccccc3)C2=O)sc1C (stereo not drawn) | inactive
C(=N\Nc1nc2ccccc2s1)/c1ccco1 | inconclusive [inhibitor, single point]
COC(CNC(=O)c1ccc2nc3ccccc3c(=O)n2c1)OC | inconclusive [inhibitor, single point]
CCn1nnnc1SCC(=O)NC1Cc2ccccc2C1 | inactive
O=S(=O)(Nc1cccc(-c2ccc(N3CCOCC3)nn2)c1)c1ccc(F)cc1F | inactive
CCN(CC)c1ccc(CNc2nc3ccccc3n2CC)cc1 | inconclusive [inhibitor, single point]
CC(C)(C)Cc1c(-c2ccc(F)cc2)nc2ccc(Br)cn12 | active: 16.4 µM
Cc1nc(-c2coc3cc(OCC(=O)O)ccc3c2=O)cs1 | inconclusive [inhibitor, single point]
O=C(COC(=O)/C=C/c1ccc(OC(F)F)cc1)Nc1ccc(S(=O)(=O)N2CCCC2)cc1 | inactive

SMILES | Potency
CCC(C)[C@@H](NC(=O)OC(C)(C)C)c1nnc(S(=O)(=O)Cc2cccc(C)c2)o1 (stereo partly drawn) | active: 4.61 µM
Cc1cc(C)c2oc(C(=O)Nc3ccc(S(=O)(=O)N(C)c4ccccc4)cc3)cc(=O)c2c1 | inconclusive [inhibitor, single point]
CCC(=O)NC(=S)Nc1cccc(Cl)c1N1CCCCC1 | active: 11.2 µM
CC/C(=N\NC(=O)c1nnn(-c2nonc2N)c1CN(C)c1ccccc1)c1ccccc1 | inactive
O=C(O)CNC(=S)N(Cc1ccco1)Cc1ccccc1Cl | inactive
N[C@H](C(=O)O)C1[C@H](C(=O)O)[C@H]1C(=O)O (stereo partly drawn) | inactive
COc1ccccc1N1CCN(CCCCOc2c(OC)cccc2OC)CC1 | inactive
COC(=O)CCN(C(=O)c1c(C)oc2ncnc(N3CCOCC3)c12)c1ccccc1 | inactive
O=C1C2CC=CCC2C(=O)N1Cc1ccccc1 (stereo not drawn) | inactive
CNc1nc2cc([N+](=O)[O-])c([N+](=O)[O-])cc2nc1NC | active: 3.26 µM
CN(CC(=O)Nc1ccccc1Br)C(=O)CNC(=O)C1CCCCC1 | inactive
O=C(c1ccco1)N1CCC2(CCCN(C(c3ccccc3)c3ccccc3)C2)CC1 | inconclusive [inhibitor, single point]
CCC(=O)N1CCc2cc(S(=O)(=O)N(C)c3cccc(C)c3)ccc21 | inconclusive [inhibitor, partial curve, poor fit]
CCS(=O)(=O)c1ccc2oc(Nc3cccc(OC)c3)nc2c1 | inconclusive [inhibitor, single point]
O=C1c2cccc(OCC(=O)N3N=C(c4cccs4)CC3c3ccc(F)cc3)c2CCN1Cc1ccccc1 (stereo not drawn) | active: 9.2 µM
CC1CCCN(C(C(=O)NC2CCCCC2)c2cc3c(cc2[N+](=O)[O-])OCO3)C1 (stereo not drawn) | inconclusive [inhibitor, single point]
COc1ccc2nc(NC(=O)C3CC(=O)N(c4ccccc4)C3)sc2c1 (stereo not drawn) | inconclusive [inhibitor, single point]
CON(C)c1nc(OCCNC(=O)COc2ccc(Cl)cc2C)nc(N(C)C)n1 | active: 8.2 µM
CCc1nc2c(OCc3ccccc3)cccn2c1N(C)C(=O)c1ccc(OC)cc1 | inconclusive [inhibitor, partial curve]
c1ccc(-c2sc3ccccc3c2-c2ccc(OCCN3CCCC3)cc2)cc1 | active: 14.6 µM
Cc1cc(/C=N/NC(=O)c2cc3ccccc3o2)c(C)n1C | active: 23.1 µM
O=C1NC(Cc2ccc(O)cc2)c2nc3cc(Cl)ccc3c(=O)n2-c2cc(Cl)ccc21 (stereo not drawn) | inconclusive [inhibitor, single point]
COc1ccccc1NC(=O)Cn1cnc2c(cnn2-c2ccc(C)c(C)c2)c1=O | inconclusive [inhibitor, partial curve]
COc1ccc(-c2cnc3c(NC=O)cc(-c4ccoc4)cn23)cc1OC | active: 2.91 µM
CC1Cc2ccccc2N1C(=O)/C=C/c1cccc(F)c1 (stereo not drawn) | inactive

SMILES | Potency
N#CC1=C2SCN(Cc3ccco3)CN2C(=O)CC1c1ccccc1F (stereo not drawn) | inconclusive [inhibitor, partial curve, poor fit]
CC(C)c1ccc(OCC(O)Cn2cnc3ccccc32)cc1 (stereo not drawn) | active: 14.6 µM
Cc1ccc(OCCCCNC(C)(C)C)c([N+](=O)[O-])c1 | inconclusive [inhibitor, single point]
Cn1c(SCC(=O)c2ccc3c(c2)Cc2ccccc2-3)nnc1-c1cccc(N)c1 | inconclusive [inhibitor, single point]
Cc1ccc(Cn2c(SCC(=O)N3CC(=O)Nc4ccccc43)nc3ccccc3c2=O)cc1 | inconclusive [inhibitor, single point]
CCN(CC(=O)Nc1cc(OC)ccc1OC)Cc1nc2ccccc2c(=O)[nH]1 | inactive
Cc1ccccc1NC(=O)c1sc2nc(N3CCOCC3)c3c(c2c1N)CC(C)(C)OC3 | inconclusive [inhibitor, partial curve, poor fit]
CCCOc1ccc(C2C(=O)N(C3CCCCCC3)CC(=O)N2CCCOCC)cc1OC (stereo not drawn) | inconclusive [inhibitor, full curve, poor fit]
Cc1c(Cl)cccc1NC(=O)CNC(=O)Cc1n[nH]c(=O)c2ccccc12 | inactive
Cc1cc(C(=O)CS(=O)(=O)c2ccc(Cl)cc2)cc(C)c1O | inconclusive [inhibitor, single point]
O=[N+]([O-])c1cccc(C(=S)N2CCN(c3ccccc3F)CC2)c1 | inconclusive [inhibitor, single point]
Cc1onc(-c2c(F)cccc2Cl)c1C(=O)NCc1ccc(F)cc1 | inconclusive [inhibitor, partial curve, poor fit]
CS(=O)(=O)NCc1ccccc1Br | inactive
COc1ccc(CNC(=S)Nc2ccc(Br)cc2)cc1 | active: 18.4 µM
COc1cccc(C(C)(O)c2nc(-c3ccc(C)c(C)c3)cs2)c1 (stereo not drawn) | inconclusive [inhibitor, single point]
COc1cc(NC(=O)CNc2cccc(S(=O)(=O)N3CCOCC3)c2)cc(OC)c1 | inconclusive [inhibitor, single point]
CC(=O)c1cccc(NC(=O)CNC(=O)c2sc3ccccc3c2Cl)c1 | inconclusive [inhibitor, partial curve]
CCOc1ccccc1N1CC(c2nc3ccccc3n2CCOc2ccc(C(C)(C)C)cc2)CC1=O (stereo not drawn) | inconclusive [inhibitor, single point]
O=C(Nc1nnc(C(F)(F)F)s1)C1COc2ccccc2O1 (stereo not drawn) | inconclusive [inhibitor, partial curve]
O=C(C1=C[C@H](c2ccc3c(c2)OCO3)C[C@H](OCCCCO)O1)N1CCOCC1 | inconclusive [inhibitor, single point]
Cc1ccc(OCc2n[nH]c(=S)n2C2CCCCC2)cc1 | active: 18.4 µM
O=S(=O)(c1ccccc1)c1nc(-c2ccco2)oc1NCc1ccco1 | inconclusive [inhibitor, single point]
CCOC(=O)c1c2c(n(Cc3ccccc3)c1C)C(=O)C(=O)c1ccccc1-2 | active: 1.16 µM
